These are yes or no findings as the source states them, for the method shown. Binding seen in cells or lysates may run through a third protein. Some results given as binding are weak or reduced against the parent protein; the word gives no strength. For some of these results: Sequences can lack the tags named with a protein.
T1: Nuclear export factor 1 (NXF1), endogenous (mouse (endogenous in P19)) (UniProt Q99JX7)
T1 sequence: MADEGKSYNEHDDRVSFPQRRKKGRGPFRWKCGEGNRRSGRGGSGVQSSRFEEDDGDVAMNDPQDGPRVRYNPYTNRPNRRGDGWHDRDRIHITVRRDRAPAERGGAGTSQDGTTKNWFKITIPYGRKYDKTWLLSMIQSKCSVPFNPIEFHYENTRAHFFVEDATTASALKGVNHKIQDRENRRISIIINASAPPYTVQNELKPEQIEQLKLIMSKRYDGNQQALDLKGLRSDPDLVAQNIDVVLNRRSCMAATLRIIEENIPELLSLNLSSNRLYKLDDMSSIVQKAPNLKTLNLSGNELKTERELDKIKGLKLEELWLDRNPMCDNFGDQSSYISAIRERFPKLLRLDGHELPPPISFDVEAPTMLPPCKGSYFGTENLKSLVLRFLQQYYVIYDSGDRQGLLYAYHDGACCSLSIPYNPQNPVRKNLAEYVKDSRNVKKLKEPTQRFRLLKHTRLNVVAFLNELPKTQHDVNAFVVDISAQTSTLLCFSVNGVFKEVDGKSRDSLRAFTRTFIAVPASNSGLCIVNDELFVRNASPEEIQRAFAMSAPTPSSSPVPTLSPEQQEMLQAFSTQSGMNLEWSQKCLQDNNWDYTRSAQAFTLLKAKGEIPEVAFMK

Protein sequences, listed by entry. Tags and fused reporters are not part of them.
UniProt Q6PDM2: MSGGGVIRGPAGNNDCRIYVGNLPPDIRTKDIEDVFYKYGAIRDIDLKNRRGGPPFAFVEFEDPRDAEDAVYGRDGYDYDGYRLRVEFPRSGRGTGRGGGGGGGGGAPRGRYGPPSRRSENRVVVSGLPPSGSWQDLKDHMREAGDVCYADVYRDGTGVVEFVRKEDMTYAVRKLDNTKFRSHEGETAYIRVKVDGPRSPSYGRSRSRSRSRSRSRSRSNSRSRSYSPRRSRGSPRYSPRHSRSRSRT
UniProt O70551: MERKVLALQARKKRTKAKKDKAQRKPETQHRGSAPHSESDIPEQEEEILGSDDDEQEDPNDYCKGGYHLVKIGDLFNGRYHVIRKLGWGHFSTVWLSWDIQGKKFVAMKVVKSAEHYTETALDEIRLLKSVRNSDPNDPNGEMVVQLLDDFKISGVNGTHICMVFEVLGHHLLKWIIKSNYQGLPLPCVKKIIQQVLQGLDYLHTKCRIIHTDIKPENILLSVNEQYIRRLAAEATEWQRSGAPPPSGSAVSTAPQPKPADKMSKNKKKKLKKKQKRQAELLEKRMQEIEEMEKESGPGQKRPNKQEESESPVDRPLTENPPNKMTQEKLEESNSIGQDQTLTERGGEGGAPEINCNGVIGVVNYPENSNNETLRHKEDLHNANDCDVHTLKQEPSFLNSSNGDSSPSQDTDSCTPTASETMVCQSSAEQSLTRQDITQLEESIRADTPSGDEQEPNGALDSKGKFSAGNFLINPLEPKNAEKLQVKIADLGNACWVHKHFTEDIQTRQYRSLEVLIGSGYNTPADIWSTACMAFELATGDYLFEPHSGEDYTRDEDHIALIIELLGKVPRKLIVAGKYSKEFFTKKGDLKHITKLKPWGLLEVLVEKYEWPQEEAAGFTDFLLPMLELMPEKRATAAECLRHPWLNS

T2: NXF1-GFP (mouse) (UniProt Q99JX7)
T2 sequence: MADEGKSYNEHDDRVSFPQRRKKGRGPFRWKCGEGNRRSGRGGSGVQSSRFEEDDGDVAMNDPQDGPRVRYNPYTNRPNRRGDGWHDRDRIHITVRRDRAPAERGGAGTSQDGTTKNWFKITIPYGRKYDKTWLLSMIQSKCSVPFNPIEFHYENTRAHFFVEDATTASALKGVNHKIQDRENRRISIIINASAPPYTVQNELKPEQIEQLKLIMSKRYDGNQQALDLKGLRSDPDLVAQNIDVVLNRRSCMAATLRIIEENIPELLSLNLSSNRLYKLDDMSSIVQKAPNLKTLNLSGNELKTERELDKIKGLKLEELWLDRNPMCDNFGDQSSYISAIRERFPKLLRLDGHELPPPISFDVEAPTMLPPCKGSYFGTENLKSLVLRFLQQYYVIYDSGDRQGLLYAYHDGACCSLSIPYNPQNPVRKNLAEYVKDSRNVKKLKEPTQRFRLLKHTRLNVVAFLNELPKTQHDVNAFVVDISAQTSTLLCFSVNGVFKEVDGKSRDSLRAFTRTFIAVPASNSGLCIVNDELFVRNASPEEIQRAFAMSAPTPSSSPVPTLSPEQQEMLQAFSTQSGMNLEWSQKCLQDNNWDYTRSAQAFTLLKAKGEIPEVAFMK


Legend:
GFP-tagged SRSF1 (mouse) [1] = target: GFP-tagged SRSF1 (mouse) (UniProt Q6PDM2); assay: co-IP; time course with different incubation times of RNase A, after 40 min of digestion (Supplemental Fig. S2F)
GFP-tagged SRSF1 (mouse) [2] = target: GFP-tagged SRSF1 (mouse) (UniProt Q6PDM2); assay: co-IP; time course with different incubation times of RNase A, time points before 40 min (Supplemental Fig. S2F)
[3] = target: T1, Nuclear export factor 1 (NXF1), endogenous (mouse (endogenous in P19)); assay: co-IP; semiquantitative forward (anti-GFP) and reverse (anti-NXF1) co-IPs from P19 BAC cell lines, without RNase A
[4] = target: T1, Nuclear export factor 1 (NXF1), endogenous (mouse (endogenous in P19)); assay: co-IP; time course with different incubation times of RNase A, after 40 min of digestion (Supplemental Fig. S2F)
[5] = target: T1, Nuclear export factor 1 (NXF1), endogenous (mouse (endogenous in P19)); assay: co-IP; semiquantitative forward (anti-GFP) and reverse (anti-NXF1) co-IPs from P19 BAC cell lines, after RNase A treatment
[6] = target: T1, Nuclear export factor 1 (NXF1), endogenous (mouse (endogenous in P19)); assay: co-IP; time course with different incubation times of RNase A, time points before 40 min (Supplemental Fig. S2F)
NXF1-GFP (mouse) = target: T2, NXF1-GFP (mouse); assay: co-IP; NXF1-GFP precipitated with anti-GFP, with or without RNase A (long); blots with phosphorylation-dependent mAb104 and phosphorylation-independent SR protein-specific antibodies

| binding [3] | binding [5] | Molecule | further results |
| --- | --- | --- | --- |
| – | – | SR protein kinase 1 (SRPK1), endogenous (from UniProt O70551 1-648) (enzyme) | binding (GFP-tagged SRSF1 (mouse) [1]): binds; binding (GFP-tagged SRSF1 (mouse) [2]): binds |
| binds | binds | GFP-tagged SRSF1 (from UniProt Q6PDM2 1-248) | binding [4]: no binding (condition: after 40 min of RNase A digestion); binding [6]: binds |
| binds | binds | GFP-tagged SRSF4 (protein, UniProt Q8VE97 1-489) MPRVYIGRLSYQARERDVERFFKGYGKILEVDLKNGYGFVEFDDLRDADDAVYELNGKDLCGERVIVEHARGPRRDGSYGSGRSGYGYRRSGRDKYGPPTRTEYRLIVENLSSRCSWQDLKDYMRQAGEVTYADAHKGRKNEGVIEFVSYSDMKRALEKLDGTEVNGRKIRLVEDKPGSRRRRSYSRSRSHSRSRSRSRHSRKSRSRSGSSKSSHSKSRSRSRSGSHSRSKSRSRSQSRSRSKKEKSRSPSKDNKSRSRSRSPDKSRSKSKDHAEDKLQNNDSAGKAKSHSPSRHDSKSRSRSQERRAEEERRRSVSRARSQEKSRSQEKSLLKSRSRSRSRSRSRSKDKRKGRKRSRDESRSRSRSKSERSRKHSSKRDSKVSSSSSSSKKKKDTDHSRSPSRSVSKEREHAKAESGQRGSRAEGESEAPNPEPRARSRSTSKSKPNVPAESRSRSKSASKTRSRSKSPSRSASRSPSRSRSRSHSRS | – |
| – | – | SRSF3, endogenous (protein, UniProt P84104 1-164) MHRDSCPLDCKVYVGNLGNNGNKTELERAFGYYGPLRSVWVARNPPGFAFVEFEDPRDAADAVRELDGRTLCGCRVRVELSNGEKRSRNRGPPPSWGRRPRDDYRRRSPPPRRRSPRRRSFSRSRSRSLSRDRRRERSLSRERNHKPSRSFSRSRSRSRSNERK | binding (NXF1-GFP (mouse)): binds |
| binds | binds | GFP-tagged SRSF3 (protein, UniProt P84104 1-164) MHRDSCPLDCKVYVGNLGNNGNKTELERAFGYYGPLRSVWVARNPPGFAFVEFEDPRDAADAVRELDGRTLCGCRVRVELSNGEKRSRNRGPPPSWGRRPRDDYRRRSPPPRRRSPRRRSFSRSRSRSLSRDRRRERSLSRERNHKPSRSFSRSRSRSRSNERK | – |
| binds | binds | GFP-tagged SRSF7 (protein, UniProt Q8BL97 1-267) MRSSARGRPLQAATAFFLSLFFFLRRFERGFWLWGGDSETKVYVGNLGTGAGKGELERAFSYYGPLRTVWIARNPPGFAFVEFEDPRDAEDAVRGLDGKVICGSRVRVELSTGMPRRSRFDRPPARRPFDPNDRCYECGEKGHYAYDCHRYSRRRRSRSRSRSHSRSRGRRYSRSRSRSRGRRSRSASPRRSRSVSLRRSRSASLRRSRSGSIIGSRYFQSRSRSRSRSRSISRPRSSRSKSRSPSPKRSRSPSGSPHRSASPERMD | – |
| – | – | SRSF7, endogenous (protein, UniProt Q8BL97 1-267) MRSSARGRPLQAATAFFLSLFFFLRRFERGFWLWGGDSETKVYVGNLGTGAGKGELERAFSYYGPLRTVWIARNPPGFAFVEFEDPRDAEDAVRGLDGKVICGSRVRVELSTGMPRRSRFDRPPARRPFDPNDRCYECGEKGHYAYDCHRYSRRRRSRSRSRSHSRSRGRRYSRSRSRSRGRRSRSASPRRSRSVSLRRSRSASLRRSRSGSIIGSRYFQSRSRSRSRSRSISRPRSSRSKSRSPSPKRSRSPSGSPHRSASPERMD | binding (NXF1-GFP (mouse)): binds |
| binds | binds | GFP-tagged SRSF5 (protein, UniProt O35326 1-269) MSGCRVFIGRLNPAAREKDVERFFKGYGRIRDIDLKRGFGFVEFEDPRDADDAVYELDGKELCSERVTIEHARARSRGGRGRGRYSDRFSSRRPRNDRRNAPPVRTENRLIVENLSSRVSWQDLKDFMRQAGEVTFADAHRPKLNEGVVEFASYGDLKNAIEKLSGKEINGRKIKLIEGSKRHRSRSRSRSRTRSSSRSRSRSRSRRSKSYSRSRSRSRSRSKSRSGSRSPVPEKSQKRGSSSRSKSPASVDRQRSRSRSRSRSVDSGN | – |
